Data taken from the supplement of paper PMC12217912.
Some of the results follow. The full chains were built here from the parent and the listed change. Values near 0.05 are background.

B1: TEV protease; numbered along this chain (parent)
chain: MGESLFKGPRDYNPISSSICHLTNESDGHTTSLYGIGFGPFIITNKHLFRRNNGTLVVQSLHGVFKVKDTTTLQQHLVDGRDMIIIRMPKDFPPFPQKLKFREPQREERICLVTTNFQTKSMSSMVSDTSCTFPSGDGIFWKHWIQTKDGQCGSPLVSTRDGFIVGIHSASNFTNTNNYFTSVPKNFMELLTNQEAQQWVSGWRLNADSVLWGGHKVFMVKPEEPFQPVKEATQL

Variants of: B1
Experiment: raw area under fraction-flipped curve 0-4 h after induction (AUC4h, not background-subtracted), DNA-recorder readout of cleavage of the substrate (dimensionless); higher = more cleavage of the substrate by the protease variant
Conditions: temperature: 34 °C; time window: 0-4 h after rhamnose induction
Method: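 In vivo DNA recorder in E. coli TOP10(DE3) ΔrhaA at 34 °C. Each TEVp single-site mutant (parent TEVp 0) is paired with a single-site variant of the 7-mer TEVs (canonical ENLYFQ|S). The substrate sits between flexible linkers in a Bxb1-sfGFP-TEVs-SsrA fusion, so cleavage stabilises Bxb1 and speeds flipping of a recombination array, read by NGS. The value is the raw area under the fraction-flipped curve over 0-4 h after rhamnose induction (AUC4h), with ≥20 reads per time point. It is not background-subtracted; inactive controls average about 0.047.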
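Note: Bxb1 expression induced with 0.2% (w/v) L-rhamnose at OD600 near 0.5, cultures sampled hourly, flipped fraction per protease–substrate barcode pair counted by paired-end Illumina sequencing.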

| Variant | area with substrate EALYFQS | area with substrate ECLYFQS | area with substrate EDLYFQS | area with substrate EELYFQS | area with substrate EHLYFQS | area with substrate EILYFQS | area with substrate EKLYFQS | area with substrate ELLYFQS | area with substrate EMLYFQS | area with substrate EPLYFQS | area with substrate EQLYFQS | area with substrate ERLYFQS | area with substrate ESLYFQS | area with substrate EFLYFQS | area with substrate EGLYFQS | area with substrate EVLYFQS | area with substrate EWLYFQS | area with substrate ETLYFQS | area with substrate EYLYFQS |
| --- | --- | --- | --- | --- | --- | --- | --- | --- | --- | --- | --- | --- | --- | --- | --- | --- | --- | --- | --- |
| T70I | 0.0846 | 0.0755 | 0.0745 | 0.119 | 0.0813 | 0.075 | 0.0814 | 0.0635 | 0.0696 | 0.118 | 0.0713 | 0.0057 | 0.0672 |  |  |  |  |  |  |
| L191Y | 0.0695 | 0.058 | 0.0782 | 0.0651 |  | 0.0658 | 0.0604 | 0.0627 | 0.0683 |  | 0.0691 | 0.0611 | 0.0653 | 0.0642 | 0.083 | 0.0619 | 0.0911 |  |  |
| L191F | 0.1 | 0.104 | 0.153 | 0.104 | 0.107 | 0.0973 | 0.0812 | 0.0885 | 0.0992 |  | 0.103 | 0.0912 | 0.101 | 0.103 |  | 0.0819 | 0.105 | 0.109 | 0.0887 |
| V217C | 0.0926 | 0.108 | 0.0929 | 0.112 | 0.0965 | 0.0988 | 0.0886 | 0.11 | 0.1 | 0.111 | 0.0978 | 0.0921 | 0.0908 |  | 0.117 | 0.0909 | 0.0947 |  | 0.102 |
| I19Y | 0.0805 | 0.0819 | 0.101 | 0.0847 | 0.0553 | 0.0657 | 0.0649 | 0.0593 | 0.0873 | 0.054 | 0.0908 | 0.0626 | 0.0748 | 0.0668 |  | 0.0751 | 0.0636 | 0.0782 | 0.0399 |
| I19P | 0.0427 | 0.0561 | 0.0506 | 0.0262 | 0.044 | 0.0447 | 0.0502 | 0.0505 | 0.0494 | 0.0454 | 0.0502 | 0.0479 | 0.0387 | 0.0782 |  | 0.0509 |  |  | 0.0309 |
| I15Q | 0.107 | 0.103 | 0.0995 | 0.109 | 0.106 | 0.086 | 0.09 |  | 0.0768 | 0.097 | 0.109 | 0.0919 | 0.0964 | 0.109 | 0.0959 | 0.108 | 0.109 | 0.111 | 0.106 |
| D161A | 0.0637 | 0.0578 | 0.0695 | 0.0274 | 0.0849 | 0.0539 | 0.0484 |  |  | 0.0596 | 0.0658 |  | 0.0585 | 0.0469 | 0.0725 | 0.0623 |  |  | 0.07 |
| D161W | 0.0662 | 0.0624 | 0.0485 | 0.0868 | 0.0494 | 0.0629 | 0.0619 | 0.0444 | 0.0603 | 0.0544 | 0.0447 | 0.0395 | 0.0559 |  | 0.0572 | 0.0598 | 0.0477 | 0.0566 |  |
| G37I | 0.117 | 0.0615 | 0.0971 | 0.111 |  | 0.0714 |  | 0.077 | 0.0916 | 0.107 | 0.0987 | 0.0703 | 0.0892 |  | 0.0824 | 0.0775 | 0.0471 | 0.0781 | 0.0635 |
| I43E | 0.041 | 0.0269 | 0.0407 |  | 0.0328 | 0.0419 | 0.0518 | 0.0366 | 0.0502 | 0.0401 | 0.0776 | 0.0491 | 0.0523 | 0.0447 |  | 0.0434 |  | 0.0517 |  |
| N53V | 0.0827 | 0.0803 | 0.0875 | 0.0853 |  |  |  | 0.0839 | 0.0776 | 0.104 |  | 0.0838 | 0.0824 |  |  |  | 0.0502 | 0.0831 |  |
| H21C | 0.0924 | 0.0875 | 0.112 |  | 0.0966 | 0.0981 | 0.103 |  | 0.108 |  | 0.0975 | 0.105 | 0.195 |  | 0.0923 | 0.0716 | 0.0946 |  |  |
| D82N | 0.0535 | 0.065 | 0.0631 | 0.0568 | 0.0599 | 0.0631 | 0.0515 | 0.0304 | 0.0561 | 0.0706 | 0.0529 | 0.0594 | 0.0569 |  | 0.0413 | 0.0458 | 0.0554 |  | 0.0876 |
| G39R | 0.059 | 0.0503 | 0.0538 | 0.044 | 0.0494 | 0.0396 | 0.041 |  | 0.0486 | 0.0542 | 0.0594 | 0.0305 | 0.0423 |  |  | 0.0393 | 0.0821 | 0.0509 | 0.0443 |
| N177S | 0.0911 | 0.0853 | 0.0991 |  | 0.0921 | 0.0722 | 0.0852 | 0.0852 | 0.0784 | 0.109 | 0.0881 | 0.0964 | 0.0779 |  | 0.0746 | 0.0739 | 0.082 | 0.0845 | 0.117 |
| N13I | 0.111 | 0.107 | 0.113 |  |  | 0.0835 | 0.103 | 0.0857 | 0.0963 | 0.104 | 0.0963 |  | 0.105 | 0.08 | 0.0943 | 0.0826 | 0.076 | 0.0996 | 0.0805 |
| I42R | 0.0513 | 0.045 | 0.0482 | 0.0484 | 0.0276 | 0.0386 | 0.0434 | 0.0442 | 0.0212 | 0.0415 | 0.04 | 0.0449 | 0.0474 |  | 0.0283 | 0.0393 | 0.0318 | 0.0367 | 0.0513 |
| S26N | 0.0823 | 0.101 | 0.103 | 0.0642 | 0.0902 | 0.0653 | 0.108 | 0.0809 | 0.0758 | 0.0824 | 0.0903 | 0.0939 | 0.0781 |  | 0.0982 | 0.0927 | 0.0709 | 0.0691 | 0.0928 |
| Q234W | 0.116 | 0.118 | 0.0862 | 0.113 | 0.105 | 0.0911 |  | 0.0897 |  | 0.0583 | 0.0856 | 0.109 | 0.0995 |  |  | 0.0996 |  |  |  |
| L33I | 0.0824 | 0.098 | 0.114 | 0.114 | 0.0936 | 0.065 |  | 0.0711 | 0.0822 | 0.0867 |  | 0.0734 | 0.0833 | 0.0855 | 0.0715 | 0.0709 | 0.0696 | 0.0824 | 0.0826 |
| S209V | 0.0988 | 0.103 | 0.147 |  | 0.0922 | 0.122 |  |  | 0.0989 | 0.139 | 0.127 |  | 0.1 |  | 0.0983 | 0.122 |  | 0.111 | 0.0933 |
| W141I | 0.0765 | 0.0594 | 0.0664 |  |  | 0.0663 | 0.104 |  | 0.0707 |  |  |  |  | 0.0657 | 0.0613 |  | 0.0203 | 0.0812 |  |
